The supplement of paper PMC9446081
Among all 39,000 compounds or so, about 220 (0.56%) showed activity. The list shows a part of the results.

Each molecule was assayed on Escherichia coli K-12 BW25113 (assay: relative growth (OD600 normalised to plate interquartile mean) (fraction); higher = less growth inhibition, active = 0.2 or less). Details: 50 µM; LB; incubation time: overnight (16-24 h).
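Also: static incubation at 37 °C against the wild-type strain, values averaged over two biological replicates.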

| SMILES | relative growth |
| --- | --- |
| C[C@@H]1CN([C@@H](C)CO)C(=O)c2cc(-c3ccc(C(=O)N(C)C)cc3)cnc2O[C@H]1CN(C)C(=O)c1cccnc1 | inactive: 1.03 |
| C[C@@H]1CCCCO[C@@H](CN(C)CC2CC2)[C@@H](C)CN([C@H](C)CO)C(=O)c2cc(NC(=O)Nc3ccc4c(c3)OCO4)ccc2O1 | inactive: 0.991 |
| COCC(=O)N1C[C@@H](C)[C@@H](OC)CN(C)C(=O)c2ccc(NC(=O)Nc3cccc(F)c3)cc2OC[C@H]1C | inactive: 1.02 |
| C[C@@H]1CN([C@@H](C)CO)C(=O)c2cc(NC(=O)Cc3ccccc3)ccc2O[C@@H]1CN(C)S(=O)(=O)c1cn(C)cn1 | inactive: 1.01 |
| C[C@@H]1CN([C@@H](C)CO)C(=O)Cc2cc(NC(=O)Cc3ccccc3)ccc2O[C@@H]1CN(C)Cc1ccc(C(F)(F)F)cc1 | inactive: 0.987 |
| COC1C=CC23c4cc5c(cc4CN(CC2O)C3C1)OCO5 (configuration not stated) | inactive: 1.1 |
| C[C@@H]1CCCCO[C@H](CN(C)CC2CCCCC2)[C@H](C)CN([C@H](C)CO)C(=O)c2cc(NC(=O)CCC(F)(F)F)ccc2O1 | inactive: 1 |
| C(=N\c1ccccc1)/c1ccc(Oc2ccccc2)cc1 | inactive: 1.05 |
| Cc1cnc(C(=O)Nc2nn[nH]n2)cn1 | inactive: 1.04 |
| C[C@H]1CCCCO[C@H](CN(C)CC2CC2)[C@@H](C)CN([C@@H](C)CO)C(=O)c2cc(NC(=O)CCC(F)(F)F)ccc2O1 | inactive: 0.99 |
| Cc1ccc(-c2cc(C(F)(F)F)nn2-c2ccc(S(N)(=O)=O)cc2)cc1 | inactive: 0.811 |
| O=C1c2ccccc2C(=O)c2c(O)c(O)cc(O)c21 | inactive: 1.05 |
| C#CC1(O)CCC2C3CCC4=CC(=O)CCC4C3CCC21CC (configuration not stated) | inactive: 1.15 |
| CCOC(=O)C1=C(N)C(=O)N(CCCN2CCOCC2)C1 | inactive: 1.02 |
| CN(C)c1nc(N)nc(CSc2nnnn2C)n1 | inactive: 0.999 |
| COc1ccc(NC(=O)N(C)C[C@@H]2OCc3ccccc3-c3c(n(C)c4ccccc34)C(=O)N([C@H](C)CO)C[C@@H]2C)cc1 | inactive: 0.981 |
| O=C(C[C@@H]1CC[C@H]2[C@@H](COC[C@@H](O)CN2Cc2cc(F)ccc2F)O1)N[C@@H]1CCN(Cc2ccccc2)C1 | inactive: 0.985 |
| COc1ccc(NC(=O)Nc2ccc3c(c2)C(=O)N([C@@H](C)CO)C[C@@H](C)[C@H](CN(C)Cc2ccncc2)OCCCC[C@H](C)O3)cc1 | inactive: 1.02 |
| C[C@H](CO)N1C[C@H](C)[C@@H](CN(C)Cc2ccc3c(c2)OCO3)Oc2ccc(NC(=O)C3CC3)cc2C1=O | inactive: 1.01 |
| COCC(=O)N1C[C@H](C)[C@H](OC)CN(C)C(=O)c2ccc(NC(=O)Nc3cccc(F)c3)cc2OC[C@H]1C | inactive: 1.01 |
| O=C(CCCCCNC(=O)OCCCOc1ccc(C2=N[C@@]3(Cc4ccccc4N(CCS(=O)(=O)c4ccccc4)C3=O)[C@H](c3ccccc3)O2)cc1)NO | inactive: 1.02 |

| SMILES | relative growth |
| --- | --- |
| COc1ccc(S(=O)(=O)N(C)C[C@H]2Oc3ccc(NS(=O)(=O)c4ccccc4)cc3C(=O)N([C@H](C)CO)C[C@@H]2C)cc1 | inactive: 0.997 |
| O=C(C[C@@H]1C[C@@H]2c3cc(NC(=O)Nc4ccc(C(F)(F)F)cc4)ccc3O[C@@H]2[C@H](CO)O1)NCCc1ccccc1 | inactive: 0.947 |
| Cc1cc(N)n2ncnc2n1 | inactive: 1.01 |
| C[C@@H]1CCCCO[C@@H](CN(C)C(=O)Nc2ccccc2)[C@H](C)CN([C@H](C)CO)C(=O)c2cc(NS(=O)(=O)c3ccc(F)cc3)ccc2O1 | inactive: 1.04 |
| CNC(=N)NCCC[C@@H](N)C(=O)O | inactive: 1 |
| O=C(NCc1ccccc1)C1=C[C@H](c2ccc(Br)cc2)C[C@H](OCc2ccc(CO)cc2)O1 | inactive: 0.893 |
| CCS(=O)(=O)N1C[C@]2(CN(C2)C(=O)Nc2ccc(cc2)F)c2c(n(c3cc(ccc23)OC)C)[C@H]1CO | inactive: 1 |
| CCCCCCc1nc(-c2ccc(-c3ccc(Cl)c(Cl)c3)o2)cc2c1[Si](C(C)C)(C(C)C)O[C@H]2c1ccccc1 | inactive: 0.983 |
| Cc1ccc(S(=O)(=O)Nc2ccc3c(c2)C(=O)N([C@H](C)CO)C[C@@H](C)[C@H](CN(C)C(=O)Nc2ccc(C(F)(F)F)cc2)O3)cc1 | inactive: 1.04 |
| C[C@@H]1CN([C@H](C)CO)C(=O)c2cc(NC(=O)Cc3ccccc3)ccc2O[C@@H](C)CCCCO[C@@H]1CN(C)CC1CCCCC1 | inactive: 1.01 |
| C[C@@H]1CCCCO[C@@H](CN(C)Cc2ccc(Cl)c(Cl)c2)[C@@H](C)CN([C@H](C)CO)C(=O)c2cc(NC(=O)Nc3ccc(F)cc3)ccc2O1 | inactive: 1.01 |
| Nc1ccc(S(=O)(=O)Nc2nccs2)cc1 | inactive: 1.05 |
| COc1ccc(S(=O)(=O)Nc2ccc3c(c2)CC(=O)N([C@H](C)CO)C[C@H](C)[C@@H](CN(C)S(=O)(=O)c2ccccc2)O3)cc1 | inactive: 0.988 |
| O=C(NCc1ccc(Oc2ccccc2)cc1)c1nc(-c2cc(Br)c(O)c(Br)c2)no1 | inactive: 0.967 |
| C[C@H]1CN([C@@H](C)CO)S(=O)(=O)c2ccc(C#Cc3ccncc3)cc2O[C@H]1CN(C)C(=O)C1CCCCC1 | inactive: 1.05 |
| CC(C)CNC(=O)C[C@H]1NCCNC1=O | inactive: 0.923 |
| C[C@H](CO)N1C[C@H](C)[C@H](CN(C)Cc2ccc(C(=O)Nc3ccccc3N)cc2)Oc2c(NS(C)(=O)=O)cccc2C1=O | inactive: 0.99 |
| C[C@@H]1CCCCO[C@@H](CN(C)S(=O)(=O)c2ccccc2)[C@@H](C)CN([C@@H](C)CO)C(=O)c2cc(NC(=O)Nc3ccc4c(c3)OCO4)ccc2O1 | inactive: 1 |
| Cn1c(=O)c(=O)n(C)c2cc(S(=O)(=O)CCC(=O)NCc3ccccc3)ccc21 | inactive: 0.958 |
| CCC(=O)N(C)C[C@H]1Oc2ncc(C#C[C@@H](C)O)cc2C(=O)N([C@H](C)CO)C[C@H]1C | inactive: 1.01 |
| COc1ccc(S(=O)(=O)N(C)C[C@H]2OCCCC[C@H](C)Oc3ccc(NC(=O)NC4CCCCC4)cc3C(=O)N([C@@H](C)CO)C[C@@H]2C)cc1 | inactive: 1.04 |
